Measurements: PubChem BioAssay AID493208 (National Center for Advancing Translational Sciences (NCATS), 2011)
The campaign covered roughly 44,000 compounds. About 340 (0.77%) were called active. Inconclusive means that the source gave no clear call. Such entries were picked first, then a sample of the others. The call rests on the fitted dose curve; in most records, active means well fitted inhibition curve with a large enough effect; inconclusive means small, poorly fitted or top-dose-only effect; inactive means flat fitted curve, though single readings scatter. Potencies of inconclusive entries are left out as doubtful fits.

Test: Acumen qHTS Assay for Inhibitors of the mTORC1 Signaling Pathway in MEF (Tsc2-/-, p53-/-) Cells: Sytravon; further: nearly all actives have a fitted effect of over 50% in size
Conditions: phospho-rpS6 immunofluorescence/PI, 24 h; series mostly up to 38.3 µM
Outline: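 Read-out: phospho-S6 Alexa-488 intensity over PI intensity per well, scored as % active cells using thresholds from rapamycin (7.5 nM) and DMSO controls. Tsc2-/-, p53-/- MEFs exposed to compound for 24 h; PI cell count recorded as viability.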
Potency means the concentration at half of the fitted maximal effect; tags describe the fitted curve by direction and shape.

| Structure (SMILES) | Potency |
| --- | --- |
| Cc1cccc(C2C=C(c3ccc(C)c(C)c3)Nc3nnnn32)c1 (configuration not stated) | inconclusive [falling, partial curve, poor fit] |
| CCCn1c(=O)sc2cc(NC(=O)c3ccc(OC)c(Br)c3)ccc21 | inconclusive [falling, partial curve, poor fit] |
| O=C(Nc1ccc(S(=O)(=O)N2CCCCC2c2cccnc2)cc1)c1ccc(Br)cc1 (configuration not stated) | inconclusive [falling, single point] |
| CCC1=Nc2cc(C(=O)NC3CCC(C)CC3)ccc2Sc2ccc(C)cc21 (configuration not stated) | inconclusive [falling, partial curve, poor fit] |
| CC(=O)c1c(C)oc2c1cc(NS(=O)(=O)c1ccc(Br)cc1)c1ccccc12 | inactive |
| Cc1c(Cl)cccc1-n1ncc(C(=O)Nc2ccc(Br)cc2F)c1C1CCNCC1 | inconclusive [falling, single point] |
| CCOc1ccccc1CNCc1cccn1-c1nnc(N2CCN(c3ccccc3)CC2)s1 | inconclusive [falling, single point] |
| COC(=O)c1ccc(NC(=O)c2nc(-c3ccc(Cl)cc3)n3c2CCCCC3)cc1 | inconclusive [falling, full curve, poor fit] |
| O=C(CSc1nccn1-c1ccc(Cl)cc1)Nc1ccc(Cl)c(Cl)c1 | inconclusive [falling, single point] |
| CN1CCc2c(sc(NC(=O)CSc3ccccc3)c2-c2nc3ccccc3s2)C1 | inconclusive [falling, single point] |
| CN(C)CCNC(=O)C1CCN(Cc2cc3ccccc3n2Cc2ccccc2)CC1 | inconclusive [falling, single point] |
| CCCN(CCC)CCCNC(=O)c1cc2c(-c3ccc(OC)c(OC)c3)nn(C)c2s1 | inconclusive [falling, single point] |
| CSc1ccc(CCNC(=O)CCn2c(=O)c3cccn3c3ccc(F)cc32)cc1 | inconclusive [falling, partial curve, poor fit] |
| CCOC(=O)c1cc(S(=O)(=O)NCc2ccc(C)cc2)[nH]n1 | inconclusive [falling, single point] |
| Cc1ccccc1Nc1c(-c2ccc(N3CCOCC3)cc2)nc2ccccn12 | inconclusive [falling, single point] |
| CC(=O)c1ccc(NC(=O)c2cc3sccc3n2Cc2ccc(F)cc2)cc1 | inconclusive [falling, partial curve, poor fit] |
| CCOc1ccc(NC(=O)Cn2c(=O)n(-c3ccccc3)c(=O)c3ccc(C(=O)NCc4ccc5c(c4)OCO5)cc32)cc1 | inactive |
| CCOc1ccc(-n2ccnc2SCC(=O)Nc2nc3ccc(C)cc3s2)cc1 | inactive |
| Cc1ccc(Nc2nnc(-c3ccc(C)c(S(=O)(=O)N4CCN(C)CC4)c3)c3ccccc23)cc1 | inconclusive [falling, single point] |
| COCCNC(=O)CSc1nc(-c2cc(OC)c(OC)c(OC)c2)[nH]c1-c1ccc(Cl)cc1 | inconclusive [falling, partial curve, poor fit] |
| CCc1ccc(NC(=O)CN(c2ccc(C)cc2)S(=O)(=O)c2cccs2)cc1 | inactive |

| Structure (SMILES) | Potency |
| --- | --- |
| CCc1ccc(NC(=O)Cn2c(=O)n(CCCCC(=O)NCc3ccc4c(c3)OCO4)c(=O)c3ccccc32)cc1 | inconclusive [falling, single point] |
| CCOc1ccc(/C=C/C(=O)Nc2sc3c(c2C(=O)OC)C(C(=O)OC)CC3)cc1 (configuration not stated) | inactive |
| CCOC(=O)c1cc(C)n(CC2CCC(C(=O)Nc3ccc(C(C)=O)cc3)CC2)c1C (configuration not stated) | inconclusive [falling, partial curve, poor fit] |
| Cc1ccc(-n2ncc(C(=O)NCCc3ccccc3)c2C2CCN(C(=O)OC(C)(C)C)CC2)c(C)c1 | inconclusive [falling, single point] |
| Cc1ccc(Nc2c(-c3ccc(N(C)C)cc3)nc3nc[nH]n23)cc1 | inconclusive [falling, single point] |
| O=C(Cc1ccccc1)Nc1sc2c(c1C(=O)Nc1ccccc1)CCCCC2 | inconclusive [falling, single point] |
| O=C(CC1(O)C(=O)N(CCc2ccccc2)c2ccc(Br)cc21)c1ccc(F)cc1 (configuration not stated) | inconclusive [falling, single point] |
| CCc1ccc2c(c1)c(=O)c(S(=O)(=O)c1ccc(Cl)cc1)cn2CC | inconclusive [falling, single point] |
| COc1cccc(CNCCSc2nnnn2C)c1OCc1ccccc1 | inactive |
| CCN(CC)CCCNC(=O)CSc1c2c(nc3cc(Cl)ccc13)CCCC2 | inconclusive [falling, single point] |
| CC1=C(C(=O)Nc2ccc(C)cc2C)C(C(C)C)n2nc(SCc3ccccc3Cl)nc2N1 (configuration not stated) | inconclusive [falling, full curve, poor fit] |
| COCCCNC(=O)c1sc2nc3n(c(=O)c2c1C)CCC3 | inactive |
| Cc1ccc(-n2c(=O)c3c4c(sc3n(Cc3cccc(Cl)c3)c2=O)CCC4)cc1C | inconclusive [activator, partial curve, poor fit] |
| Cc1nc2nncn2c(NCc2ccc(Cl)cc2)c1C | inconclusive [falling, partial curve] |
| CCOc1ccc(NC(=O)Cn2cc(C(=O)c3ccc(CC)cc3)c(=O)c3cc(OC)c(OC)cc32)cc1 | inconclusive [falling, partial curve, poor fit] |
| Cc1ccc(C)c(CN2CCC(CNC(=O)Nc3ccc(Br)cc3F)CC2)c1 | inconclusive [falling, single point] |
| CCc1ccc(NC(=O)Cn2nc3c4ccccc4n(Cc4ccccc4)cc-3c2=O)cc1 | inconclusive [falling, single point] |
| O=C(CCC1N=C2c3ccccc3N=C(SCc3ccc(Cl)cc3)N2C1=O)NCCc1ccccc1 (configuration not stated) | inconclusive [falling, full curve, poor fit] |
| Cc1ccc(O)c(NC(=O)c2ccc(Br)c(S(=O)(=O)N3CCCCC3)c2)c1 | inactive |
| Cc1cc2c(cc1C)NC(CC(=O)Nc1ccccc1)C(=O)N2 (configuration not stated) | inconclusive [falling, single point] |
| CCc1ccc(NC(=O)C(=O)NCC(c2cccnc2)N2CCN(Cc3ccccc3)CC2)cc1 (configuration not stated) | inconclusive [falling, partial curve, poor fit] |

| Structure (SMILES) | Potency |
| --- | --- |
| Cc1nc(-c2ccc(Cl)cc2)sc1CCNC(=O)Cc1ccc(F)cc1 | inactive |
| COc1ccc(C)cc1NC(=O)Cn1c(=O)cc(C)c2c(C)nn(C)c21 | inactive |
| O=C(c1ccccc1Cl)N(Cc1ccco1)c1ccccn1 | inactive |
| CCOC(=O)c1cc(-c2ccc(C)cc2)n(CC(=O)Nc2ccccc2F)c1C | inconclusive [falling, partial curve] |
| O=C(CCCn1c(=O)c2ccccc2n(Cc2cccc(Cl)c2)c1=O)NCCc1ccc(Cl)cc1 | inconclusive [falling, partial curve, poor fit] |
| CCCCSc1nnc2c(n1)OC(c1ccc(Br)s1)N(C(C)=O)c1ccccc1-2 (configuration not stated) | inconclusive [falling, single point] |
| CSc1ccc(CCNC(=O)Cn2ccc3cc(S(=O)(=O)N4CCCCCC4)ccc32)cc1 | inconclusive [falling, partial curve, poor fit] |
| Cn1nnnc1SCCCNCc1cc(Cl)ccc1OCc1ccc(F)cc1 | inconclusive [falling, partial curve] |
| CCc1ccc(S(=O)(=O)N(C(=O)c2ccncc2)c2ccc3oc(C)c(C(=O)OC)c3c2)cc1 | inconclusive [falling, full curve] |
| CCOC(=O)c1ccc(N2C(=O)c3n[nH]c(-c4ccco4)c3C2c2ccc(C)cc2)cc1 (configuration not stated) | inconclusive [falling, single point] |
| Cc1cccc(NC(=O)CSc2ccc(-c3ccccn3)nn2)c1 | inconclusive [falling, single point] |
| Cn1c(=O)oc2cc(S(=O)(=O)N3CCCC(C(=O)NCc4ccc(F)cc4)C3)ccc21 (configuration not stated) | inactive |
| O=C(NCCc1ccccc1Cl)c1sc2ncccc2c1-n1cccc1 | inconclusive [falling, single point] |
| COc1ccc(CNC(=O)CCCN2C(=O)COc3ccc(C)cc32)cc1 | inconclusive [falling, single point] |
| CCOC(=O)c1ccc(NC(=O)CSc2c3c(nc4cc(Cl)ccc24)CCCC3)cc1 | inactive |
| Cc1cccc(OCC(=O)N(Cc2ccc(C(C)(C)C)cc2)Cc2ccco2)c1 | inconclusive [falling, partial curve, poor fit] |
| COc1cc(OC)c(NC(=O)N2CC3CCCN3c3ccccc32)cc1Cl (configuration not stated) | inactive |
| Cc1ccc(C)c(CN2C(=O)c3ccccc3S(=O)(=O)c3ccc(C(=O)NCCCN4CCCC(C)C4)cc32)c1 (configuration not stated) | inconclusive [falling, single point] |
| CCC(CC)c1nn2c(=O)cc(COc3ccc(NC(=O)c4ccc(C)cc4)cc3)nc2s1 | inconclusive [falling, full curve, poor fit] |
| CCOc1ccc(S(=O)(=O)NCC(c2cccs2)S(=O)(=O)c2ccc(C)cc2)cc1 (configuration not stated) | inconclusive [falling, single point] |
